The values below come from PubChem BioAssay AID1346428 (National Center for Advancing Translational Sciences (NCATS), 2018).

The campaign covered roughly 48,000 compounds. About 1,200 (2.5%) were called active. Another 2% or so got no clear call; they are omitted.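 How the source made its calls: active means activation of at least 60% and not above a set upper limit (about 1 call in 100 departs from these limits); inconclusive means activation of 40% to 60%, or above that upper limit; inactive means activation under 40%.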 Some of the results follow.

This assay addresses Probable G-protein coupled receptor 32 (Homo sapiens) (UniProt O75388). Description: qHTS for Agonists of Human Resolvin D1 Receptor DRV1. Further: 0% is about no effect. The note with it: CHO-K1 GPR32 beta-arrestin PathHunter luminescence, 90 min; at 76.9 µM; active compounds read high; zero percent set by DMSO-only wells. Put shortly: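 PathHunter beta-arrestin recruitment in CHO-K1 cells stably expressing ProLink-tagged GPR32. Cells were exposed to compound for 90 min at 37 C, then chemiluminescence was read after 1 h detection at ambient temperature; DMSO served as basal control.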
Chain of UniProt O75388 (O75388 whole entry, looked up): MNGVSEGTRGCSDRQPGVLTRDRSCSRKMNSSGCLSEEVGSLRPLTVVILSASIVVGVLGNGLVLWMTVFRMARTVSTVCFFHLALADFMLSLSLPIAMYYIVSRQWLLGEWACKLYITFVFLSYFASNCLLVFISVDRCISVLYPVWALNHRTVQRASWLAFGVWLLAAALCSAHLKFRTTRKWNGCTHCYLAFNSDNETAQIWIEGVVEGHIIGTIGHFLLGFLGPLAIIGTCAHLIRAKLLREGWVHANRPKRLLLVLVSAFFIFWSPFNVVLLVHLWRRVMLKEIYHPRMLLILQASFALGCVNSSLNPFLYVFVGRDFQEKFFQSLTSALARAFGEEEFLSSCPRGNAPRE
Background: In qHTS, concentration-response curves come from the screen itself.
Take `Cc1sc2ncn(CC(=O)N(C)c3ccc(C(C)C)cc3)c(=O)c2c1S(=O)(=O)N1CCC(C)CC1`: the activation is inactive: -2.96%.

`COc1ccc(-c2noc(CC(=O)Nc3cc(OC)ccc3OC)n2)cc1`: the activation was inactive: -17.7%.

As to `Cc1ccc(Nc2nc3ccc(C(=O)c4ccccc4)cc3n3c(C)nnc23)c(C)c1`, the activation was inactive: -8.99%.

On to `CC1CCC(NC(=O)C2(C)Cc3ccccc3C(=O)N2Cc2ccc(Cl)cc2)CC1` (centres undefined), for which the activation was inactive: -23.9%.

`CC(=O)c1cccc(NC(=O)CN2C(=O)CC(c3ccc(C)cc3C)=Nc3ccccc32)c1`: the activation is inactive: -10.6%.

`CCCn1c(=O)c2sccc2n2c(CCCC(=O)N3CCN(c4cccc(Cl)c4)CC3)nnc12`: the activation was inactive: -0.821%.

`CCCCN(CC)CCCNC(=O)c1cn(CC)c2ccc(S(=O)(=O)N3CCc4ccccc4C3)cc2c1=O`: the activation is inactive: -1.47%.

In the case of `O=C(/C=C/c1ccc(Cl)cc1)N1CCC(c2nc3ccccc3o2)CC1`, the activation was inactive: -4.64%.

As for `COc1ccc(CCNCc2c(C(=O)O)c(C)n(Cc3cccc(Cl)c3)c2C)c(OC)c1OC`, the activation was inactive: -2%.

In the case of `CCc1ccccc1NC(=O)CCC(=O)N1CC(C)Oc2ccc(C)cc21` (centres undefined), the activation was inactive: -19.4%.

For `CCc1cc2c(cc3c(=O)n(CC(=O)N4CCN(c5cccc(C)c5C)CC4)nc(CC)n32)s1`, the activation was inactive: 0.262%.

As for `Cc1ccc(C)c(N2CCN(S(=O)(=O)c3ccc(C(=O)N(C)C)s3)CC2)c1`, the activation is inactive: -13.2%.

Turning to `COc1ccc(CCNC(=O)c2cc3c(=O)n(C)c4ccccc4c3s2)cc1OC`, the activation is inactive: 10.3%.

Take `O=C(Cn1cc(C(=O)c2ccccc2)c(=O)c2cc3c(cc21)OCCO3)Nc1ccc(F)c(F)c1`: the activation is inactive: 10.2%.

On to `CCOc1ccccc1CNS(=O)(=O)c1cc2c(cc1C)NC(=O)CO2`, for which the activation is inactive: -14.6%.

Consider `Cc1ccccc1CNC(=O)CCC(=O)N1CCSc2ccccc21`, for which the activation was inactive: -14.9%.

In the case of `COc1ccc(NC(=O)c2c(NC(=O)COc3ccccc3)sc3c2CCCCC3)cc1`, the activation is inactive: 14.7%.

Turning to `O=C(Cn1cc(S(=O)(=O)Cc2ccccc2Cl)c2ccccc21)NCCc1ccccc1`, the activation was inactive: -5.5%.

Consider `COc1ccc(NC(=O)CC2C(=O)N(c3cccc(OC)c3)C(=O)N2CCC2=CCCCC2)cc1` (centres undefined), for which the activation is inactive: -6.98%.

Consider `CCOc1ccc(CC(=O)NCc2ccc3c(c2)CCN3C(=O)c2ccccc2)cc1OCC`, for which the activation was inactive: -22.6%.

Consider `COc1ccc(NC(=O)CCNS(=O)(=O)c2ccc3c(c2)CCCC(=O)N3)cc1`, for which the activation was inactive: -0.458%.

For `Cc1ccc(-c2cc3ncc4c(n3n2)-c2cc(Cl)ccc2OC4)cc1`, the activation was inactive: -17.5%.

Turning to `O=C(NCc1ccc(F)cc1)C(=O)Nc1ccc2nc3n(c(=O)c2c1)CCCCC3`, the activation was inactive: 6.72%.

Take `CCn1nnc2cc(C(=O)Nc3cc(C)ccc3C)ccc21`: the activation was inactive: -4.24%.

As for `Cc1ccccc1N1CC(c2nnc(NC(=O)c3ccco3)s2)CC1=O` (centres undefined), the activation is inactive: 1.44%.

Regarding `Cc1cccc(N2CCN(Cc3cc(=O)oc4cc(C)ccc34)CC2C)c1` (centres undefined), the activation is inactive: -23.2%.

For the compound `CC(C)c1ccc(CNc2nc(-c3ccco3)nn2S(=O)(=O)c2ccc(F)cc2)cc1`, the activation is inactive: -11.3%.

On to `Cc1cccc(NC(=O)N2CCC(N3CCN(Cc4ccccc4)C(=O)C3=O)CC2)c1C`, for which the activation is inactive: -15.6%.

Regarding `CCOc1ccc(OCC(=O)NCCS(=O)(=O)N2CCN(c3cccc(Cl)c3)CC2)cc1`, the activation was inactive: 22.6%.

In the case of `CC(C)(C)C1CCc2onc(C(=O)Nc3sc4c(c3C#N)CCCC4)c2C1` (centres undefined), the activation was inactive: 7.19%.

For `O=C(c1cc(-c2ccc(F)cc2)on1)N1CCN(c2ccc(F)cc2)CC1`, the activation was inactive: 9.88%.

`O=C(O)CC1CC(c2ccccc2)=NO1` (centres undefined): the activation is inactive: -1.83%.

For `CCCC1N=C2c3ccccc3N=C(SCC(=O)NCCc3ccc(Cl)cc3)N2C1=O` (centres undefined), the activation was inactive: -2.59%.

In the case of `Cn1nc(C(=O)N2CCN(c3ccccc3F)CC2)c2c1-c1ccccc1S(=O)(=O)C2`, the activation is inactive: -7.87%.

With `O=C(CN1C(=O)c2cccc3cccc1c23)Nc1ccccc1Br`, the activation was inactive: -1.06%.

Consider `CCCCNS(=O)(=O)c1ccc2nc(-c3cccnc3)cc(C(=O)NC(C)C)c2c1`, for which the activation is inactive: -8.06%.

As to `CCn1c(C(=O)Nc2ccc(C)cc2C)cc2sc(Cl)cc21`, the activation is inactive: -16.4%.

For the compound `Cc1oc2ncnc(N3CCOCC3)c2c1C(=O)NCCc1ccccc1`, the activation is inactive: -12.4%.

For the compound `CCCOC(=O)CSc1nnc(-c2ccccc2)o1`, the activation was inactive: -4.13%.

For the compound `CCOC(=O)c1ccccc1NC(=O)c1cc2ccc3cccnc3c2[nH]1`, the activation was inactive: -17.3%.

Regarding `CCOC(=O)COc1ccc(C)cc1C(=O)c1ccn2nc(-c3ccc(Cl)cc3)cc2n1`, the activation was inactive: -6.7%.

Turning to `CC(C)NC(=O)c1ccc2c(c1)nc1n2CCCCC1`, the activation was inactive: -9.7%.

In the case of `CCc1ccc(/C=C(/C#N)c2nc(-c3ccc(C)cc3)cs2)cc1`, the activation is inactive: 13.2%.

Take `O=C(C1CC1)N1CCc2cc(Br)cc(S(=O)(=O)Nc3ccc(F)c(F)c3)c21`: the activation was inactive: 37.6%.

As to `Cc1cc(C)cc(N2CCn3c2nc2c3c(=O)n(Cc3c(F)cccc3Cl)c(=O)n2C)c1`, the activation is inactive: 1.02%.

As for `O=S(=O)(NCC(c1ccco1)N1CCN(c2ccccc2)CC1)c1cc(F)ccc1F` (centres undefined), the activation is inactive: -23.4%.

As to `CCc1ccc2oc(-c3ccc(C)c(NC(=O)Cc4ccccc4)c3)nc2c1`, the activation is inactive: 16.8%.

On to `O=C(Cn1c(=O)c(CNc2ccccc2)cc2cc3c(cc21)OCCO3)Nc1ccccc1Cl`, for which the activation is inactive: -33.2%.

Take `CC(C)(C)OC(=O)N1CCC(c2c(C(=O)NCCN3CCOCC3)cnn2-c2cccc(Cl)c2)CC1`: the activation is inactive: -10.8%.

On to `Cn1c(=O)c2c(nc(CN3CCN(c4ccccc4F)CC3)n2Cc2ccc(F)cc2)n(C)c1=O`, for which the activation is inactive: -19.9%.

Take `Cc1nn(C)c2c1c(C(F)(F)F)cc(=O)n2Cc1ccc(Br)cc1F`: the activation is inactive: -0.0942%.

In the case of `CCOc1ccc(N(Cc2ccccc2)C(=O)c2nc(SC)ncc2Cl)cc1`, the activation was inactive: -32.4%.

For `O=c1c(S(=O)(=O)c2ccccc2)cn(Cc2ccccc2)c2cc(N3CCCC3)c(F)cc12`, the activation is inactive: -11.7%.

Consider `Cc1cc(C)cc(C(=O)NCCc2sc(-c3ccc(F)cc3)nc2C)c1`, for which the activation is inactive: -11.2%.
